Data reported in patent US20240216428A1.

Target: CD5 (UniProt P06127)
Experiment: cell-based or functional assay

Chain of UniProt P06127 (P06127 25-495 limits assumed): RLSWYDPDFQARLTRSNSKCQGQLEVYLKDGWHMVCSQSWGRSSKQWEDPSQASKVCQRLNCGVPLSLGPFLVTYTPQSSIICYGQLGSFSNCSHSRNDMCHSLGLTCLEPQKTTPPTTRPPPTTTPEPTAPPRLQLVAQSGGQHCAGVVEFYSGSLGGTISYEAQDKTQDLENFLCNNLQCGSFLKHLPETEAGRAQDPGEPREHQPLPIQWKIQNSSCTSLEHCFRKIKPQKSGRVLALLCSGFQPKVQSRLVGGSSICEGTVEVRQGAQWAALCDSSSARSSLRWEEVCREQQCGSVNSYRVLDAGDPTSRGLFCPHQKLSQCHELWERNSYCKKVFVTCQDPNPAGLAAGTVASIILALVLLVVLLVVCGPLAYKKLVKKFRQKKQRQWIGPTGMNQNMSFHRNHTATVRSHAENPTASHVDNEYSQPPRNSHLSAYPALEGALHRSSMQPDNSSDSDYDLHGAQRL

B1: CD5#11-CAR (chimeric antigen receptor with anti-CD5 scFv #11 as antigen-binding site) (protein, part only; not given: CD28, CD3-zeta and DAP10 signaling parts, not shown: small tags and cut ends)
chain, part: [letters of about 100 residues omitted]RSYAGEYFDHWGQGTLVTVSSGGGGSGGGGSGGGGSDIQMTQSPSSLSASVGDRVTITCRASQSISNWLNWYQQKPGKAPKLLIYDASSLQSGVPSRFSGSGSGTDFTLTISSLQPEDFATYYCQQSYSFPWTFGQGTKVEIKASTGPGGQHHHHHHGAWSHPQFEK
Question: Which results are given for B1?
Answer: cytotoxicity against cancer cells expressing CD5, fold over the control group (single cell lines) (times higher than the control group): 10; cytotoxicity against normal cells expressing CD5, fold over the control group (single cell lines) (times higher than the control group): 2
